The structures appear in SMILES notation. Whole data set: some 110,000 compounds, median “z-score” near -0.1, cut for the highest 2% near 2. This is one part of the list.

This test has as its target Metabotropic glutamate receptor 8 (Rattus norvegicus) (UniProt P70579). In words: rat mGluR8 modulators via GIRK flux, primary screen, cell-based, thallium flux, HTS (AID 488969). To be noted: HEK293 rat mGluR8, GIRK (G protein-gated inwardly rectifying potassium channel) thallium flux, FluoZin2; at 10 µM; stronger effect = higher value; submaximal glutamate (EC20) added with thallium.
UniProt P70579, sequence (P70579 whole entry, looked up): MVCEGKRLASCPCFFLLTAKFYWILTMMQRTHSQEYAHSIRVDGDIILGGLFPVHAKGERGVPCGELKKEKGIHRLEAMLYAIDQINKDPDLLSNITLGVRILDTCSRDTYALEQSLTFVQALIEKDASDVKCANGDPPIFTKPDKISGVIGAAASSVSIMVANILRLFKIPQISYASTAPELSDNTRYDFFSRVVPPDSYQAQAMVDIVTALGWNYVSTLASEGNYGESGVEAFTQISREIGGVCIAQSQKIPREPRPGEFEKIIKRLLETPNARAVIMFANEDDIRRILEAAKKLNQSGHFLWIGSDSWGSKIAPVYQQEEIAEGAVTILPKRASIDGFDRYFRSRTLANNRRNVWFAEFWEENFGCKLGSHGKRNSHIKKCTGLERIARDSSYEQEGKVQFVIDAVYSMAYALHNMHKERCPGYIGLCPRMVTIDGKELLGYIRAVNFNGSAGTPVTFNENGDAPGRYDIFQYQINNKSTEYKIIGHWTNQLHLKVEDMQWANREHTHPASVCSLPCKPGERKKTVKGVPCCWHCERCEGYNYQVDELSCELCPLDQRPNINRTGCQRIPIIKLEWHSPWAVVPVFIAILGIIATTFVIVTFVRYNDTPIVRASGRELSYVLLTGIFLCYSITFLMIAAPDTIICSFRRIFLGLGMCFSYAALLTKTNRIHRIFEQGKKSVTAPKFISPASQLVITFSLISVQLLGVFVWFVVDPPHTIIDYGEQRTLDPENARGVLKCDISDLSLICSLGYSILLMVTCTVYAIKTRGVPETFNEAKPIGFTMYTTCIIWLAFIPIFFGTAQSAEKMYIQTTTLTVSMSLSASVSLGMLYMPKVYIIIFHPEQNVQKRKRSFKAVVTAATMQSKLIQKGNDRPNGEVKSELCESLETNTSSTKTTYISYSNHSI
Compound `CCN(CC)S(=O)(=O)c1cccc(C(=O)OCC(=O)N2CC(=O)Nc3ccccc32)c1` showed a z-score of -0.314.

For `COc1ccc(OC)c(NC(=O)C2CCCC2)c1`, the z-score is -0.342.

With `Cc1cnn(-c2cc(N/N=C/c3ccccc3F)ncn2)c1`, the z-score is -0.102.

`COCC(C)n1c(C)cc(C(=O)CSc2nnc(Nc3ccccc3F)s2)c1C` (centres undefined): the z-score is -0.418.

In the case of `N/C(=N\OC(=O)C1CCCCC1)c1cccc([N+](=O)[O-])c1`, the z-score was -0.396.

`Cc1ccc2c(c1)[C@@H]1CN(C)CC[C@@H]1N2S(=O)(=O)c1ccc(F)cc1`: the z-score is -0.232.

Compound `CCOC(=O)c1c(N2C(=O)C=CC2=O)sc(C)c1C` registered a z-score of 0.0123.

For `Cc1ccc(C2CC(=O)N(c3ccc(F)cc3)C3=C2C(=O)CCC3)cc1` (centres undefined), the z-score is 0.0688.

As for `O=C1c2cccc3cccc(c23)C(=O)N1CCN1CCN(C(=S)Nc2ccc(Cl)cc2)CC1`, the z-score amounted to 0.217.

`CC(C)(C)c1cc(C(=O)N/N=C/c2ccc(O)cc2)n(-c2ccccc2)n1`: the z-score is -0.0407.

Turning to `CC(=O)NC1C(=O)N=C(SCc2ccccc2)NC1=O` (centres undefined), the z-score is -0.559.

Compound `COc1ccc(O)c(C(=O)c2cnc3c(c2)c(=O)[nH]c(=O)n3C)c1` registered a z-score of -0.107.

In turn, `Cn1nnnc1SCC(=O)N1CCN(Cc2ccccc2)CC1` returned a z-score of -0.0959.

`O=C(OCc1cc(=O)n2cc(Br)ccc2n1)c1ccc(Cl)c(S(=O)(=O)NCc2ccccc2)c1` gave a z-score of -0.182.

As for `CCOC(=O)c1c(C)[nH]c(C(=O)COC(=O)C2(C)CC2(Cl)Cl)c1C` (centres undefined), the z-score is -0.344.

`COc1cc(NC(=S)NNC(=O)CC(C)C)c(OC)cc1Cl` registered a z-score of -0.155.

For the compound `O=c1oc(-c2ccccc2)nc2c1C1(CCCCC1)Cc1ccccc1-2`, the z-score stood at 0.889.

Regarding `O=C(Nc1ccc2c(c1)OCCO2)C1CCC1`, the z-score was determined as 0.045.

For `COc1ccc(C(c2sc3nc(C)nn3c2O)N2CCCCC2)cc1` (centres undefined), the z-score was -0.138.

As for `CCc1nc(N2CCCC2)c(C#N)c2c1CCCC2`, the z-score is -0.517.

In turn, `COc1cc(C(=O)Nc2nnc(-c3sccc3C)s2)cc(OC)c1OC` showed a z-score of 1.51.

`COc1ccc(NC(=O)CSc2nncn2C)c([N+](=O)[O-])c1` came in with a z-score of 0.0754.

Compound `N#Cc1c(/N=C/c2ccco2)sc2c1CCCCC2` came in with a z-score of 0.423.

In the case of `CCOC(=O)CN=C1CC(C)(C)CC2=C1Sc1ncnc(N(C)C)c1N2`, the z-score is -0.302.

Take `COC(=O)c1c(-c2ccncc2)csc1NC(=O)c1ccoc1C`: the z-score was -0.683.

`CCCC(=O)c1ccc2c(c1)OCCO2` had a z-score of -0.255.

`CCn1c(CC(=O)Nc2ccc(C)c(Cl)c2)nnc1SCC(=O)Nc1nc(C)cs1` yielded a z-score of 0.176.

Consider `Cn1nnnc1SC(C(=O)Nc1cccc(C(F)(F)F)c1)c1ccccc1` (centres undefined), for which the z-score is -0.391.

`CCc1ccc2c(c1)CCCN2C(=O)c1ccccc1C(=O)O` gave a z-score of 0.00689.

On to `Cc1ccc(-n2c(C)cc(C(=O)COC(=O)c3ccc[nH]c3=O)c2C)cc1`, for which the z-score is -0.0945.

Take `CCNc1nc(OCCNS(=O)(=O)c2cc(C)ccc2C)nc(N(C)C)n1`: the z-score is -0.0683.

Compound `O=C1CCCN1CCC1CCN(C2CC(=O)N(c3ccc(Cl)cc3)C2=O)CC1` (centres undefined) showed a z-score of 0.127.

Take `CCN(CC)c1ccc(NC(=O)Nc2ccccc2C(F)(F)F)cc1`: the z-score was -0.133.

Take `Cc1ccc2c(CN3CCC(C)CC3)cc(=O)oc2c1`: the z-score was -0.214.

Regarding `COC(=O)N/N=C\C=C\c1ccc2c(c1)OCO2`, the z-score was -0.0578.

In turn, `COC(=O)c1ccc(C)c(NC(=O)CN(c2cc(OC)ccc2OC)S(C)(=O)=O)c1` registered a z-score of -0.157.

The compound `Brc1ccc(-c2nnc3ccc(N4CCN(c5ccccc5)CC4)nn23)cc1` returned a z-score of -0.123.

In turn, `OC1C2(Cc3ccccc3)CN3CCN(C2)CC1(Cc1ccccc1)C3` (centres undefined) gave a z-score of -0.264.

The compound `Cc1ccc2nc(CSc3nnc(-c4ccco4)n3-c3ccccc3)cc(=O)n2c1` gave a z-score of -1.34.

Compound `Cc1nc(NC(=O)c2ccccc2)sc1-c1csc(Nc2ccc(Cl)cc2)n1` had a z-score of -0.0853.

For `Cc1ccccc1N(CC(=O)N/N=C/c1ccccc1Cl)C(=O)c1ccccc1`, the z-score is -0.0818.

The compound `COc1cccc(/C=N/n2c(SC)nnc2-c2ccccc2)c1OC` displayed a z-score of -1.13.

Consider `CCOc1ccc(OCC)c(NC(=O)C2CCCN(S(=O)(=O)c3c(C)n[nH]c3C)C2)c1` (centres undefined), for which the z-score was -0.342.

As to `O=C(Nc1cccc(Br)c1)/C(=C\c1cccnc1)NC(=O)c1ccco1`, the z-score amounted to 0.224.

`CC(C)c1ccc(-n2cccc2/C=C2/C(=N)N3C=CSC3=NC2=O)cc1` returned a z-score of 2.17.

In turn, `Cc1cccc(OCc2nnc(N)s2)c1` gave a z-score of -0.235.

As to `N#CNC(=Nc1cccc(F)c1)SCc1ccccc1F`, the z-score was -0.112.

`CCOC(=O)C1CCCCN1Cc1ccc(C(F)(F)F)cc1` (centres undefined): the z-score is -0.136.

For `C=CCn1c(C)cc(C(=O)CSc2nnc(NC(C)C)s2)c1C`, the z-score is -0.18.

`C/C=C/C(=O)Nc1ccccc1Br`: the z-score was found to be 1.01.

In the case of `CCCC(=O)N1CCc2cc(OC)c(OC)cc2C1c1cc2cc3c(cc2[nH]c1=O)OCO3` (centres undefined), the z-score is -0.29.

In turn, `CCCCCOc1ccc(CSc2ncn[nH]2)cc1` had a z-score of -0.179.

For `O=C(Nc1ccc(S(=O)(=O)N2CCCc3ccccc32)cc1)C1CCCO1` (centres undefined), the z-score was -0.218.

As for `O=C(NCCCN1CCOCC1)c1cccs1`, the z-score is 0.402.

As for `COc1ccc(CCN(C(=O)C(F)(F)F)C(C(=O)NC2CCCCC2)c2ccc(C)s2)cc1OC` (centres undefined), the z-score is -0.485.

`O=C(Nc1ccccc1)N1N=C(c2ccc(F)cc2)CC1c1ccc(F)cc1` (centres undefined) displayed a z-score of -0.338.

On to `Cc1cc(C)n(C(=O)c2ccc(C)c(S(=O)(=O)N3CCCCC3)c2)n1`, for which the z-score is -0.353.

`COc1ccc(-c2cc3nc(C4CCN(C(=O)OC(C)(C)C)CC4)c(C(=O)O)cn3n2)cc1` showed a z-score of -0.691.

In turn, `COc1ccc(-c2nc(CC(=O)O)cs2)cc1OC` showed a z-score of -0.228.

`CC(C)(C)NC(=O)C(c1ccccn1)N(C(=O)C1CSC(=O)C1)c1ccc(F)cc1` (centres undefined) had a z-score of -0.791.

Consider `Cc1ccc(S(=O)(=O)NC(C(=O)Oc2cc3oc(=O)cc(C)c3cc2Cl)C(C)C)cc1` (centres undefined), for which the z-score is -0.124.

For `Cc1ccc(-n2ncc3c(=O)[nH]c(SCC(=O)N4CCN(c5ccccc5)CC4)nc32)cc1`, the z-score worked out at 0.0413.

Consider `Cc1ccc(C2NC(c3ccc(C)cc3)C([N+](=O)[O-])C(C)(C)C2[N+](=O)[O-])cc1` (centres undefined), for which the z-score is -0.18.

`Cc1ccc(N(CC(=O)Nc2ccc(S(=O)(=O)N3CCOCC3)cc2)S(C)(=O)=O)cc1C` displayed a z-score of -0.552.

Compound `Cc1ccsc1/C=C/c1ccc2cccc(O)c2n1` returned a z-score of -0.139.

Compound `Cn1c(=O)n(CC(=O)Nc2ccccc2)c2ccccc21` came in with a z-score of 0.064.

As for `COC(=O)c1ccccc1NC(=O)c1ccccc1NS(C)(=O)=O`, the z-score was -0.195.

Compound `COC(=O)c1sc2cc(C(F)(F)F)cnc2c1-c1cccnc1` came in with a z-score of -0.0811.

In the case of `Cc1cccc(NC(=O)C(C)Oc2ccccc2C)n1` (centres undefined), the z-score was -0.61.

These data come from PubChem BioAssay AID488969 (Vanderbilt High Throughput Screening Facility, 2010).
